The source of these data is the CheMixHub viscosity set.

± gives the uncertainty stated by the source. A number of entries come with more than one value. This list holds those alone. The source may hold further records. The records of an entry repeat one measurement (runs, samples, wells, individuals or studies). What stands in brackets tells the records apart. The letters are not those of the source and start again with each entry.

Broadly, the viscosity is the internal friction of a fluid under shear. A high value points to a thick fluid.

Consider `CC(=O)N(C)C`, for which the viscosity reads like this: (303.15 K, 101 kPa) 0.882 ± 0.012 mPa·s [study A] and 0.862 ± 0.011 mPa·s [study B] and 0.88 ± 0.011 mPa·s [study C] and 0.8873 ± 0.0078 mPa·s [study D] and 0.88 mPa·s [study E] and 0.8784 ± 0.023 mPa·s [study F] and 0.86 ± 0.02 mPa·s [study G]; (303.15 K, 101.33 kPa) 0.873 ± 0.023 mPa·s [study A] and 0.8769 ± 0.011 mPa·s, 0.8769 ± 0.0057 mPa·s [study B] and 0.878 ± 0.007 mPa·s [study C]; (313.15 K, 101 kPa) 0.778 ± 0.011 mPa·s [study A] and 0.758 ± 0.01 mPa·s [study B] and 0.747 ± 0.01 mPa·s [study C] and 0.7766 ± 0.0072 mPa·s [study D] and 0.7685 ± 0.02 mPa·s [study E].
For the compound `Cc1cccc2ccccc12`, the viscosity runs as follows: (293.15 K, 100 kPa) 3262 ± 460 mPa·s [study A] and 3.26 ± 0.21 mPa·s [study B]; (313.15 K, 100 kPa) 2091 ± 260 mPa·s [study A] and 2.09 ± 0.13 mPa·s [study B].
